# Measurements published in PubChem BioAssay AID488969 (Vanderbilt High Throughput Screening Facility, 2010).
# The full ranking holds about 110,000 compounds; the median of “z-score” is about -0.1, and the highest 2% start at about 2. The list shows a part of the results.
# Biological target: Metabotropic glutamate receptor 8 (Rattus norvegicus) (UniProt P70579)
# Assay: mGluR8 Gi/Go-coupled signaling modulation – cell-based, rat, thallium flux, HTS, primary screen (AID 488969)
# Conditions: HEK293 rat mGluR8, GIRK (G protein-gated inwardly rectifying potassium channel) thallium flux, FluoZin2; at 10 µM; stronger effect = higher value; submaximal glutamate (EC20) added with thallium
# Chain of UniProt P70579 (P70579 whole entry, looked up): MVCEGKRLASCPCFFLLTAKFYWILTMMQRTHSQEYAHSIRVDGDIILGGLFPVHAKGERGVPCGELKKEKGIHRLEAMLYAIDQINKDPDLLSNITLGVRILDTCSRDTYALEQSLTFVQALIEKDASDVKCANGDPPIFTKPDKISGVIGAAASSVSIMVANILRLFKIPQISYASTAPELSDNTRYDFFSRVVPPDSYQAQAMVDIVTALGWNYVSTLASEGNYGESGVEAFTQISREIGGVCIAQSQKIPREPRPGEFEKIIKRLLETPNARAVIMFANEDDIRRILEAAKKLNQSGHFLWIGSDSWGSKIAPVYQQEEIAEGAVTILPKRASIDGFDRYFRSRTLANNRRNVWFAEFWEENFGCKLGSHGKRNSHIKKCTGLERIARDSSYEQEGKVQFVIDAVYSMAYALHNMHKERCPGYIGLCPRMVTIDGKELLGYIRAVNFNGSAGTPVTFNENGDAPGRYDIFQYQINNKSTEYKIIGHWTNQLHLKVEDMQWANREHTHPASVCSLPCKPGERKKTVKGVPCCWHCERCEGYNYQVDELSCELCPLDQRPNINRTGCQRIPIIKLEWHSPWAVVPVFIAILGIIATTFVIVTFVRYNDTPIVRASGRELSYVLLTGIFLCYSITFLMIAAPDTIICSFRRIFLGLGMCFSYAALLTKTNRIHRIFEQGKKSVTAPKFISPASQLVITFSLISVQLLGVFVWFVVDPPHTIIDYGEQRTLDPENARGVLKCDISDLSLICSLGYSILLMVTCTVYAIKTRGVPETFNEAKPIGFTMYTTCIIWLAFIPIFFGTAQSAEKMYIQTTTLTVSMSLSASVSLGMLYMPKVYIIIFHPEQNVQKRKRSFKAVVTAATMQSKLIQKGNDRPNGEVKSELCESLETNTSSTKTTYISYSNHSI
row,SMILES,z-score
1,c1ccc2c(c1)sc1nnnn12,0.901
2,CC1CN(S(=O)(=O)c2ccc(Cl)c(S(=O)(=O)N3CC(C)OC(C)C3)c2)CC(C)O1 (stereo unspecified),-0.309
3,CC12CCC(C(=O)Nc3cccnc3)(CC1=O)C2(C)C (stereo unspecified),-0.316
4,CCOC(=O)C1=C(C)N(c2ccc(OC)cc2)C(=O)/C1=C\c1cccs1,-0.132
5,CCCCNC(=O)Nc1nnc(-c2ccc(Cl)cc2)o1,-0.915
6,CN1C(=O)c2ccccc2C(C(=O)O)C1c1cn(C)c2ccccc12 (stereo unspecified),-0.114
7,COC(=O)c1cc(C(=O)Nc2cccc(C)n2)cc([N+](=O)[O-])c1,-0.243
8,COc1ccc(-c2nc(SC(CC(=O)NCc3ccccc3)c3ccc(OC)c(OC)c3)n[nH]2)cc1 (stereo unspecified),-0.352
9,Cc1occc1C(=O)NCc1ccco1,0.0264
10,COC(=O)Cc1c[nH]c2cccc(OCC(O)CN(Cc3ccccc3)C(C)C)c12 (stereo unspecified),0.637
11,CCc1ccc2[nH]c3nc(SCc4nnc(-c5ccc(C)cc5)o4)nnc3c2c1,-0.413
12,Fc1ccc(Nc2ncnc3sc4c(c23)CCC4)cc1F,0.938
13,COc1ccc2oc(=O)c(NC(=O)C3CCCCC3)cc2c1,-0.0765
14,CC/C(O)=C1\C(=O)CC(c2ccccc2)CC1=NCCC(=O)O (stereo unspecified),-0.467
15,O=C(Nc1cccnc1)c1ccc(COc2ccccc2Cl)o1,-0.832
16,Cc1cccc(C(=O)N/N=C/C(C)Cc2ccc3c(c2)OCO3)c1 (stereo unspecified),-0.261
17,O=c1[nH]c2ccc(S(=O)(=O)N3CCN(C4CCCCC4)CC3)cc2[nH]c1=O,-0.0711
18,COc1ccccc1OCC(=O)Nc1ccc(CSc2ccccc2)cc1C,-0.0901
19,Cc1ccc2nc(-c3ccc(N4C(=N)SC5CS(=O)(=O)CC54)cc3)sc2c1 (stereo unspecified),2.09
20,Cc1ccc(C(=O)NCCNc2ccc([N+](=O)[O-])cc2C(F)(F)F)cc1,-0.285
21,NC(=O)N/N=C/c1cc(Br)ccc1OC(=O)c1ccccc1,-0.422
22,O=C(NC(=S)Nc1ccc(S(=O)(=O)N2CCCC2)cc1)C1CCC1,-0.279
23,Cc1csc(NC(=O)CCc2ccc(S(=O)(=O)N3CCOCC3)cc2)n1,-0.107

row,SMILES,z-score
1,O=C(c1ccccc1)C(Cn1cncn1)C(Sc1ccccc1)c1ccccc1 (stereo unspecified),-0.248
2,Cc1cc(NC(=O)C2CCCCC2)nc2c1c(=O)oc1ccccc12,-0.26
3,Cc1ccc(Nc2nnc(-c3ccc(N4CCOCC4)c([N+](=O)[O-])c3)c3ccccc23)cc1,-2.12
4,O=C(OCC(CO)OC(CO)n1ccc(=O)[nH]c1=O)c1ccccc1 (stereo unspecified),0.279
5,CCn1nc(C)c(/C=N/NC(=O)c2ccc3c(c2)c(C)c(C)n3Cc2ccccc2)c1C,-0.331
6,CC(=O)c1ccc(N2CCN(C(C)C(=O)NC3CCCc4ccccc43)CC2)cc1 (stereo unspecified),-0.818
7,Cc1ccc(CNC(=O)CSc2c3c(nc4cc(Cl)ccc24)CCCC3)o1,-0.496
8,Cc1cccc(-c2noc(-c3cc4ccccc4oc3=O)n2)c1,0.602
9,CN1CCN(S(=O)(=O)c2ccc(C(=O)Nc3ccccc3)cc2)CC1,-0.612
10,CSc1ccccc1NC(=O)c1cccs1,-0.371
11,O=C(Nc1ccc2c(c1)OCO2)c1noc2c1CCCCC2,0.597
12,C=CCn1c(SCC(=O)Nc2ccc3c(c2)OCCO3)nnc1-c1ccco1,0.179
13,NC(Cc1ccc(O)c([N+](=O)[O-])c1)C(=O)O (stereo unspecified),-0.0752
14,COC(=O)C1C(=O)C2=C(CC1C)NC(C)=C(C(=O)OC1CCCC1)C2c1ccc(N(C)C)cc1 (stereo unspecified),-0.651
15,CC(=O)Nc1ccc(NC(=O)C(C)n2nc([N+](=O)[O-])c(Br)c2C)cc1 (stereo unspecified),-0.151
16,COc1ccc(NC(=O)N2CCCC(C(=O)NC(C)C)C2)cc1 (stereo unspecified),0.156
17,CC(=O)CSc1nnc(-c2ccncc2)n1C,0.1
18,CCOC(=O)c1[nH]nc(-c2c(O)cc(C)cc2O)c1-c1csc(C)n1,-0.402
19,O=c1oc2ccccc2cc1-c1csc(Nc2nc3c(F)cccc3s2)n1,0.848
20,CCOc1c(Br)cc(/C=C2/SC(=O)N(CC(=O)N3CCCC3)C2=O)cc1OC,-0.0467
21,O=C(CN1C(=O)NC(Cc2ccccc2)C1=O)Nc1ccccc1 (stereo unspecified),0.158
22,COc1ccccc1/C=N/NC(=O)c1cccc(OC(F)(F)C(F)F)c1,-0.0658
23,COc1cccc(C(=O)Nc2ccccc2N2CCOCC2)c1,0.0601

row,SMILES,z-score
1,COc1cc(/C=C2\C(=O)N(C)C(=S)N2C)ccc1O,-0.152
2,CC(C)CC(=O)Nc1cccc(NC(=O)CC(C)C)n1,-0.0574
3,CSc1nnc(-c2ccccc2)n1C,-0.153
4,N=c1sccn1CC(=O)Nc1ccc(Cl)c(S(=O)(=O)N2CCOCC2)c1,0.131
5,COc1ccccc1C(=O)Nc1ccccc1N1CCN(S(C)(=O)=O)CC1,0.336
6,COC(=O)Cn1cc(C(=O)OC)c2ccccc21,0.258
7,CC/C(=N\NC(=O)Nc1ccccc1)c1ccccc1,-0.238
8,Cn1ccnc1SCc1cc(=O)[nH]c2ccccc12,-0.0852
9,CCOC(=O)Cc1c(C)[nH]c(=S)[nH]c1=O,-0.0991
10,COc1ccc(CNC(=S)Nc2ccccc2C)cc1,-0.145
11,O=C(COc1ccc(Cl)cc1)N1CCN(S(=O)(=O)c2ccccc2)CC1,0.0293
12,CCn1c(O)c(/C=C2\C=Nc3ccccc32)sc1=Nc1ccccc1,-0.146
13,Cc1sc2nc3n(c(=O)c2c1C)CCCCC3,-0.206
14,COc1nc(-c2ccccc2)ccc1-c1noc(C)n1,0.0211
15,CCC(C)/C(C)=N/NC(=O)C1COc2ccccc2O1 (stereo unspecified),0.0736
16,CCCN(C(=O)CSc1cc(-c2ccccc2)c2ccc(OC)cc2n1)C1CCS(=O)(=O)C1 (stereo unspecified),-0.403
17,S=c1[nH]nc(CCc2ccccc2)n1Cc1ccccc1,-0.0986
18,O=C(C(Cl)Cl)N1CCN(c2ccccn2)CC1,0.168
19,Clc1ccc(-c2cc(-c3nnc4n3CCCCC4)c3ccccc3n2)cc1,2.08
20,COc1ccc(N(C(C)=O)S(=O)(=O)c2cccc3cccnc23)cc1,-0.162
21,N#Cc1c(N)nc2c(c1N)CC(=O)N2c1ccccc1-c1ccccc1,0.0698
22,Cc1ccccc1OCC(=O)N/N=C/c1cc2ccccc2nc1Cl,-0.172
23,CCCCNC(=O)C1CCCN(S(=O)(=O)c2ccc(-n3cnnn3)cc2)C1 (stereo unspecified),-0.378

row,SMILES,z-score
1,O=C(CCCCCn1c(SCc2ccncc2)nc2ccccc2c1=O)NCc1ccco1,-0.274
2,COc1ccc(-n2c(SC)nnc2-c2c[nH]c3ccccc23)cc1,-0.388
3,CCOC(=O)/C(C(=O)Nc1ccc(Br)cc1)=C1/NC(C)(C)Cc2ccccc21,-0.363
4,COc1ccc(Nc2ncc(C(=O)N3CCC(C(N)=O)CC3)c3ccccc23)cc1,-0.199
5,CCOc1cc(C)c(S(=O)(=O)Nc2ccc(F)cc2)cc1C,0.564
6,COc1ccc(OC)c(CN2CCCC(C(=O)N3CCCCC3)C2)c1 (stereo unspecified),0.841
7,CC(C)C(=O)Nc1ncc2c(n1)CC(c1cccs1)CC2=O (stereo unspecified),-0.364
8,O=C(N/N=C/c1ccc(O)cc1)c1cc[n+](Cc2ccccc2)cc1,-0.114
9,O=C(COc1cccnc1[N+](=O)[O-])N1CCN(S(=O)(=O)c2ccccc2)CC1,-0.0792
10,Cc1ccc(NC(=O)CCC(=O)NNC(=O)C(c2ccccc2)c2ccccc2)c(C)c1,0.0309
11,COc1ccc(C2NC(=O)CS2)cc1 (stereo unspecified),0.0416
12,O=C(Nc1nnc(CCS(=O)(=O)c2ccc(Br)cc2)s1)c1ccc([N+](=O)[O-])cc1,-0.105
13,Cn1c(Cn2cnc(Cl)c2Cl)nc2ccccc21,0.488
14,COc1cc2c(C(=O)NCCCOC(C)C)cn(CC(C)C)c(=O)c2cc1OC,-0.641
15,COc1ccc(-n2ncc(N(C)n3cccc3)c(Cl)c2=O)cc1,0.184
16,O=C(CN1C(=O)CC(c2ccccc2)=Nc2ccccc21)NC1CCCCC1,0.0429
17,Cc1ccc(S(=O)(=O)N(C)C)cc1NC(=O)CN1C(=O)NC2(CCCc3ccccc32)C1=O (stereo unspecified),-0.342
18,COc1ccc2cc(S(=O)(=O)N3CCOCC3)ccc2c1,0.596
19,CNc1oc(C)nc1S(=O)(=O)c1ccc(C)cc1,-0.153
20,Cc1ccc(OCCCNC2CCCC2)cc1,-0.0441
21,O=S(=O)(c1cccc(S(=O)(=O)N2CCOCC2)c1)N1CCCCC1,-0.241
22,COc1ccc(CCNC(=O)CSc2nc(-c3ccco3)cc(C(F)(F)F)n2)cc1OC,1.06
23,Cc1nc(SCC(=O)NCc2ccco2)c2c3c(sc2n1)CCCC3,-0.181

row,SMILES,z-score
1,CCCCCn1c(SCCOCC)nc2c1c(=O)[nH]c(=O)n2C,-0.233
2,CN(C)CCCNCCCNC(=O)c1ccccn1,-0.205
3,CCCCN(CCCC)S(=O)(=O)c1ccc(SCC(=O)OCC)c([N+](=O)[O-])c1,-0.868
4,Cc1cc(C)nc(NC2=NCCN2C(=O)Nc2ccc(Cl)c(Cl)c2)n1,-0.403
5,O=C(CSc1nc(-c2ccccc2)cs1)NC(=O)NCc1ccco1,-0.338
6,COc1ccccc1C1CN(c2ccc(F)cc2F)N=C1c1cccs1 (stereo unspecified),-0.0531
7,CN(C)S(=O)(=O)c1ccc2nnn(OCC(=O)NC34CC5CC(CC(C5)C3)C4)c2c1,0.0619
8,Cc1cc(-c2ccccc2)nc(Oc2cccc(C(F)(F)F)c2)c1S(C)(=O)=O,0.172
9,O=C(/C=C/Nc1ccc(F)cc1)c1ccc(Oc2ncccn2)cc1,1.67
10,COC(CNC(=O)c1ccc(N2CCC3(CC2)OCCO3)c([N+](=O)[O-])c1)OC,0.0204
11,Cc1ccc(-n2[nH]c3c4c(ccc3c2=O)C(=O)c2ccccc2C4=O)cc1,0.134
12,c1ccc(CSc2ccc(-c3cccs3)nn2)cc1,-0.307
13,CC(=O)NNc1cc(=O)c2c(=O)n(C)c(=O)n(C)c2[nH]1,-0.373
14,CCCC(=O)NCCc1cc2c(C)ccc(C)c2[nH]c1=O,-0.178
15,COc1ccc(C(C(=O)OC(C)CN(C)C)c2ccccc2)cc1 (stereo unspecified),0.0462
16,CC(C)COC(=O)c1ccccc1N1C(=O)C2C3CCC(C3)C2C1=O (stereo unspecified),-0.448
17,COc1ccc(CCNC(=O)c2cnn3c(C(F)F)cc(C)nc23)cc1OC,-0.247
18,COc1ccc(C)cc1-n1nnnc1SCn1nnc2ccccc2c1=O,-0.188
19,CCc1ccc(/C=C/C(=O)c2cc(Br)ccc(=O)c2O)cc1,2.17
